# Measurements reported in EP4707380A1, “LACTOBACILLUS MALI STRAIN AND USES THEREOF” (CJ Cheiljedang Corporation, priority 2023, dated 2024).
# Key:
# [1] = tested on: Lactobacillus mali CJST01 crude enzyme solution; experiment: Transglycosylation of steviol glycosides by crude enzyme solution (HPLC); format: biochemical; settings: steviol glycoside and sucrose 10% each, pH 5.0, 40°C, 24 hours
# Experimental: Specifically, 12 kinds of steviol glycosides (stevioside, rebaudioside A, B, C, D, E, F, M, N, dulcoside A, steviolbioside, rubusoside) and sucrose (CJ CheilJedang) were added to 50 µM sodium acetate buffer (pH 5.0) by 10% each, and the crude enzyme solution of the Lactobacillus mali 2 kinds of strains prepared in Example 3 was added and reacted at 40°C for 24 hours. […]
# [2] = tested on: Lactobacillus mali DSM20444 crude enzyme solution; experiment: as above; settings: steviol glycoside and sucrose 10% each, pH 5.0, 40°C, 24 hours
# [3] = Solubility in distilled water; settings: incubated 4 days
# [4] = Paired Comparison Test: concentration corresponding to the same sweetness level; settings: concentration (w/w) in drinking purified water at the same sweetness level, based on the RM concentration; 100 consumers
# Experimental: Specifically, the present evaluation was performed by descriptive analysis by recruiting professional sensory panels, and in advance, the concentration corresponding to the same sweetness level was calculated for 100 sweetness-sensitive female consumers between ages of 19 and 40. Then, the consumers were asked to select the closest concentration by phasing the CJ and A14 sample concentrations into quintiles based on the RM concentration. The manufacturing method was to prepare the corresponding substance in a state that drinking was possible by dissolving it in drinking purified water at a set concentration (w/w), and the samples were provided into the consumer panels by 10 mL each in a transparent plastic cup, and two samples were randomly assigned to select the sample felt sweeter, and based on this, the sample in which statistical equivalence occurred among overall differences between the samples was calculated as the sample concentration for final descriptive analysis.
# [5] = physchem; settings: distilled water, thermodynamic from solid
compound,measurement,setting,value
C=C1C[C@@]23CC[C@H]4[C@@](C)(CCC[C@@]4(C)C(=O)O[C@@H]4O[C@H](CO)[C@@H](O)[C@H](O)[C@H]4O)[C@@H]2CC[C@]1(O[C@@H]1O[C@H](CO)[C@@H](O)[C@H](O)[C@H]1O[C@@H]1O[C@@H](C)[C@H](O)[C@@H](O)[C@H]1O)C3 [Dulcoside A],"production of the transglycosylated steviol glycoside, CJST01",[1],○
same,"production of the transglycosylated steviol glycoside, CJST01",[1]; listed as dulcoside A,had the transglycosylation activity
same,"production of the transglycosylated steviol glycoside, DSM20444",[2],○
"C=C1C[C@@]23CC[C@H]4[C@@](C)(CCC[C@@]4(C)C(=O)O[C@@H]4O[C@H](CO)[C@@H](O)[C@H](O)[C@H]4O)[C@@H]2CC[C@]1(O[C@@H]1O[C@H](CO)[C@@H](O)[C@H](O[C@@H]2O[C@H](CO)[C@@H](O)[C@H](O)[C@H]2O)[C@H]1O[C@@H]1O[C@H](CO)[C@@H](O)[C@H](O)[C@H]1O)C3 [Rebaudioside A, rebaudioside A]","production of the transglycosylated steviol glycoside, CJST01",[1],○
same,"production of the transglycosylated steviol glycoside, CJST01",[1]; listed as rebaudioside A,had the transglycosylation activity
same,Solubility,[3]; 10 °C,5 mg/mL
same,Solubility,[3]; 25 °C,5 mg/mL
same,Solubility,[3]; 40 °C,6 mg/mL
same,Solubility,[3]; 55 °C,12 mg/mL
same,"production of the transglycosylated steviol glycoside, DSM20444",[2],○
"C=C1C[C@@]23CC[C@H]4[C@@](C)(CCC[C@@]4(C)C(=O)O[C@@H]4O[C@H](CO)[C@@H](O)[C@H](O)[C@H]4O[C@@H]4O[C@H](CO)[C@@H](O)[C@H](O)[C@H]4O)[C@@H]2CC[C@]1(O[C@@H]1O[C@H](CO)[C@@H](O)[C@H](O[C@@H]2O[C@H](CO)[C@@H](O)[C@H](O)[C@H]2O)[C@H]1O[C@@H]1O[C@H](CO)[C@@H](O)[C@H](O)[C@H]1O)C3 [Rebaudioside D, rebaudioside D]",Solubility,[3]; 10 °C,4 mg/mL
same,Solubility,[3]; 25 °C,1 mg/mL
same,Solubility,[3]; 40 °C,1 mg/mL
same,Solubility,[3]; 55 °C,2 mg/mL
"C=C1C[C@@]23CC[C@H]4[C@@](C)(CCC[C@@]4(C)C(=O)O[C@@H]4O[C@H](CO)[C@@H](O)[C@H](O[C@@H]5O[C@H](CO)[C@@H](O)[C@H](O)[C@H]5O)[C@H]4O[C@@H]4O[C@H](CO)[C@@H](O)[C@H](O)[C@H]4O)[C@@H]2CC[C@]1(O[C@@H]1O[C@H](CO)[C@@H](O)[C@H](O[C@@H]2O[C@H](CO)[C@@H](O)[C@H](O)[C@H]2O)[C@H]1O[C@@H]1O[C@H](CO)[C@@H](O)[C@H](O)[C@H]1O)C3 [Rebaudioside M, rebaudioside M]",Calculated concentration,[4],0.0696%
C=C1C[C@@]23CC[C@H]4[C@@](C)(CCC[C@@]4(C)C(=O)O[C@@H]4O[C@H](CO)[C@@H](O)[C@H](O)[C@H]4O)[C@@H]2CC[C@]1(O[C@@H]1O[C@H](CO)[C@@H](O)[C@H](O)[C@H]1O)C3 [Rubusoside],"production of the transglycosylated steviol glycoside, CJST01",[1],○
same,"production of the transglycosylated steviol glycoside, CJST01",[1]; listed as rubusoside,had the transglycosylation activity
C=C1C[C@@]23CC[C@H]4[C@@](C)(CCC[C@@]4(C)C(=O)O)[C@@H]2CC[C@]1(O[C@@H]1O[C@H](CO)[C@@H](O)[C@H](O)[C@H]1O[C@@H]1O[C@H](CO)[C@@H](O)[C@H](O)[C@H]1O)C3 [Steviolbioside],"production of the transglycosylated steviol glycoside, CJST01",[1],○
same,"production of the transglycosylated steviol glycoside, CJST01",[1]; listed as steviolbioside,had the transglycosylation activity
"C=C1C[C@@]23CC[C@H]4[C@@](C)(CCC[C@@]4(C)C(=O)O[C@@H]4O[C@H](CO)[C@@H](O)[C@H](O)[C@H]4O)[C@@H]2CC[C@]1(O[C@@H]1O[C@H](CO)[C@@H](O)[C@H](O)[C@H]1O[C@@H]1O[C@H](CO)[C@@H](O)[C@H](O)[C@H]1O)C3 [Stevioside, stevioside]","production of the transglycosylated steviol glycoside, CJST01",[1],○
same,"production of the transglycosylated steviol glycoside, CJST01",[1]; listed as stevioside,had the transglycosylation activity
same,solubility at 4 days,[5]; 10 °C,12 mg/mL
same,solubility at 4 days,[5]; 25 °C,21 mg/mL
same,solubility at 4 days,[5]; 40 °C,37 mg/mL
same,solubility at 4 days,[5]; 55 °C,> 160 mg/mL
same,"production of the transglycosylated steviol glycoside, DSM20444",[2],○
Rebaudioside C,"production of the transglycosylated steviol glycoside, CJST01",[1],○
same,"production of the transglycosylated steviol glycoside, DSM20444",[2],○
Rebaudioside F,"production of the transglycosylated steviol glycoside, CJST01",[1],○
same,"production of the transglycosylated steviol glycoside, DSM20444",[2],○
